We go through 9 molecules from US20240092835A1, “NOVEL PEPTIDES CAPABLE OF ALTERING NK CELL ACTIVITY” (Massachusetts Institute of Technology, priority 2022, published 2024).

A number of entries come with more than one value. The list is limited to them. There may be further records. Values that stand side by side read as repeated measurements on other runs, samples or individuals; a mean can stand among them.

HLA-E on RMA-S/HLA-E cells (human), P13747, sequence (P13747 22-358): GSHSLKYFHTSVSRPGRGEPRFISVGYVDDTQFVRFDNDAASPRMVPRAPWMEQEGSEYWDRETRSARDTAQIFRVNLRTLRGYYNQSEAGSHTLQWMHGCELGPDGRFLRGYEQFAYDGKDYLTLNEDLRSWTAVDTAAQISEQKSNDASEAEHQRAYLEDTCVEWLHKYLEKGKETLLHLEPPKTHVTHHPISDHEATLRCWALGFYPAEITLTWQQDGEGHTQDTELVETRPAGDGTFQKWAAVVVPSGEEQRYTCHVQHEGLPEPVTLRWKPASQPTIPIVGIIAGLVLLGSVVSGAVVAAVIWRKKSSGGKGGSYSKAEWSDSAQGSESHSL

The assay concerns the target HLA-E on RMA-S/HLA-E cells (human), P13747. In words: RMA-S/HLA-E cells, 30 uM peptide 16 h, anti-HLA-E flow cytometry. A general note: A flow cytometer gives signals particle by particle.
As for VMPGRTLCF (modifications not checked) [TACR3226-234 (human11)], the GeoMFI (HLA-E surface stabilization) is 3150, 2910, 3430, 3610 GeoMFI [columns of one line].
For TLPKRGLFL (modifications not checked) [AKAP6388-396 (human2)] the value was 2020, 2030, 1730, 2800 GeoMFI [columns of one line]; for VMAPRTLFL (modifications not checked) [… (LFL)], 3480, 3310, 3920, 4060 GeoMFI [columns of one line].
The value for NMPARTVLF (modifications not checked) [MTREX490-498 (human14)] was 1300, 1360, 1000, 1740 GeoMFI [columns of one line]; that for TAPARTMFL (modifications not checked) [PISD55-63 (human13)] was 851, 887, 673, 1190 GeoMFI [columns of one line]; that for QMPSRSLLF (modifications not checked) [CREB3L1419-427 (human1)] was 2460, 1760, 2270, 2500 GeoMFI [columns of one line].
For RMPPRSVLL (modifications not checked) [INTS1260-268 (human12)] the value was 3780, 4220, 4270, 4700 GeoMFI [columns of one line]; for FLPNRSLLF (modifications not checked) [SLC52A3354-362 (human8)], 1070, 813, 1050, 1650 GeoMFI [columns of one line]; for TLPERTLYL (modifications not checked) [ECEL1269-277 (human7)], 3200, 3540, 3900, 4460 GeoMFI [columns of one line].
